{"source": "PubChem BioAssay AID1345082", "about": "(National Center for Advancing Translational Sciences (NCATS), 2018)", "note": "Screen size: about 94,000 compounds; about 4,000 (4.3%) were called active. Inconclusive results, whose numbers are uncertain, are shown with a selection of clear calls. Calls follow the shape of the dose curve; as a rule, active = well fitted inhibition curve with a large enough effect; inconclusive = small, poorly fitted or top-dose-only effect; inactive = no such curve, though single readings can be large or run the other way. Potencies beside an inconclusive call are fits to weak or partial responses and may not hold up. % is scaled to controls: 0 for no effect and ±100 for the full control effect; potency is read from the fitted curve at half-maximal effect; tags tell the direction and shape of the fitted curve.", "data": [{"test": "Cytotoxic Profiling in NIH 3T3 Cell Line of Diverse Libraries Using Quantitative High-Throughput Screening; also: nearly all actives have a fitted effect of over 55% in size", "details": "NIH 3T3 viability, CellTiter-Glo ATP luminescence, 48-72 h; activity change, negative = cytotoxicity: at 96.7 µM (top of the series); series mostly up to 96.7 µM", "in_short": "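Mouse fibroblast NIH 3T3 cells, 400 per well, received compound via pintool and were incubated for 48 or 72 hr prior to CellTiter-Glo ATP luminescence measurement.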", "values": [{"molecule": "COc1cccc(-c2c(C(=O)Nc3cccc(Cl)c3)nc3sccn23)c1", "Potency": "inconclusive: 35.5 µM [inhibitor, partial curve]"}, {"molecule": "Cc1c(C(=O)N2C[C@@H](CN(C)C)C[C@H](CO)C2)n(C)c2c(C)cccc12", "activity change, negative = cytotoxicity": "inactive: -19.7%"}, {"molecule": "O=C(c1cccc2[nH]ccc12)N1CCC2(CC1)CN(c1ncccn1)CC2CO", "note": "(configuration not stated)", "activity change, negative = cytotoxicity": "inactive: -7.91%"}, {"molecule": "CC#CCn1cc2c3c(cccc31)[C@H](CC(C)C)N[C@H](C(=O)N1CCN(C)CC1)C2", "Potency": "active: 89.1 µM"}, {"molecule": "COc1ccc(Cn2c(=O)c(C(=O)NCc3ccc4c(c3)OCO4)nc3cccnc32)cc1", "Potency": "inconclusive: 39.8 µM [inhibitor, partial curve]"}, {"molecule": "COc1ccccc1NC(=O)c1cnc(-c2ccc(F)cc2)nc1-c1ccncc1", "outcome": "inactive"}, {"molecule": "CC1(C(=O)NCc2cccnc2)CCc2cnc(NCc3ccccc3)nc21", "note": "(configuration not stated)", "Potency": "active: 35.5 µM"}, {"molecule": "Cc1cccc(-n2nc(-c3c(C)nc4scc(CC(=O)NCCC(C)C)n4c3=O)cc2C)c1C", "Potency": "inconclusive: 35.5 µM [inhibitor, partial curve, poor fit]"}, {"molecule": "O=C1CCN(CC(O)Cc2ccccc2)c2ccccc2CCN1Cc1ccccc1", "note": "(configuration not stated)", "Potency": "inconclusive: 31.6 µM [inhibitor, partial curve, poor fit]"}, {"molecule": "CC(C)c1cccc(NC(=O)CN2C(=O)NC(c3ccccc3Cl)C3=C2COC3=O)c1", "note": "(configuration not stated)", "Potency": "inconclusive: 44.7 µM [inhibitor, partial curve, poor fit]"}, {"molecule": "CCOCCCNc1ncnc2c1CN(C1CCCNC1)C(=O)CN2C", "note": "(configuration not stated)", "outcome": "inactive"}, {"molecule": "COc1ccc(CC(=O)N2CCc3nc(C(C)C)nc(-c4ccc(OC)cc4)c3CC2)cc1", "Potency": "inconclusive: 50.1 µM [inhibitor, partial curve, poor fit]"}, {"molecule": "CCn1cnnc1CC1CCN(C(=O)C2CCN(Cc3nc(-c4cccc(C)c4)oc3C)CC2)CC1", "activity change, negative = cytotoxicity": "inactive: -19%"}, {"molecule": "O=C(NC1CCN(c2cc(-c3cccs3)[nH]n2)C1)c1cccs1", "note": "(configuration not stated)", "Potency": "inconclusive: 44.7 µM [inhibitor, partial curve, poor fit]"}, {"molecule": "O=C(C[C@@H]1CCNC[C@@H]1Cc1cc(-c2ccc(F)cc2)on1)NCc1ccc2c(c1)OCO2", "Potency": "inconclusive: 39.8 µM [inhibitor, partial curve]"}, {"molecule": "N#Cc1cccnc1N1CCCC(CO)(CCCc2ccccc2)C1", "note": "(configuration not stated)", "Potency": "inconclusive: 79.4 µM [inhibitor, partial curve]"}, {"molecule": "O=C(NC1CCCC1)C1CCCN(c2nccc(Nc3ccccc3F)n2)C1", "note": "(configuration not stated)", "Potency": "active: 39.8 µM"}, {"molecule": "COc1cccc([S+](=O)([O-])N2CCCC3(CC(c4ccccn4)=NO3)C2)c1", "note": "(configuration not stated)", "activity change, negative = cytotoxicity": "inactive: -18%"}, {"molecule": "CCn1ccc(C(=O)N2CCN(C(=O)N3CC4CC(C3)[C@H]3CCCC(=O)N3C4)CC2)n1", "note": "(some centres not stated)", "outcome": "inactive"}, {"molecule": "COc1ccc(-c2nnc3n2CCN(C(=O)NC2CCCC2)C3)cc1", "Potency": "inconclusive: 89.1 µM [inhibitor, partial curve, poor fit]"}, {"molecule": "CN1CCN(c2ccc3ncc(Nc4ccccc4F)n3n2)CC1", "Potency": "inconclusive: 89.1 µM [inhibitor, single point]"}, {"molecule": "O=C(c1ccn(C(F)F)n1)N1CCc2nc(-c3ccc(Cl)cc3)[nH]c2C1", "Potency": "inconclusive: 35.5 µM [inhibitor, full curve]"}, {"molecule": "COc1ccccc1Nc1ccnc(N2CCN(C(=O)Nc3ccccc3)CC2)n1", "Potency": "inconclusive: 5.01 µM [inhibitor, full curve]"}, {"molecule": "Cc1ccc(C2=NC3(CCN(C(=O)CCc4ccccc4)CC3)ON2)cc1", "activity change, negative = cytotoxicity": "inactive: -21.7%"}, {"molecule": "c1cncc(-c2cc(-c3cccc4cc[nH]c34)cn3cncc23)c1", "Potency": "inconclusive: 20 µM [inhibitor, partial curve, poor fit]"}, {"molecule": "O=C(c1cnccn1)N1CC(F)(F)C[C@H]1c1nc(-c2ccccc2)no1", "activity change, negative = cytotoxicity": "inactive: -27%"}, {"molecule": "CCC(=O)Nc1ccc(OCC(=O)N[C@H]2CN(C(C)C)C[C@@H]2OC)cc1", "activity change, negative = cytotoxicity": "inactive: 3.17%"}, {"molecule": "Cc1cc(C(=O)N2CCC(Cc3nc(-c4ccccc4)n[nH]3)C2)n(C)n1", "note": "(configuration not stated)", "Potency": "inconclusive: 56.2 µM [inhibitor, partial curve, poor fit]"}, {"molecule": "CCCOc1ccc(CNC(=O)[C@H]2CCC[C@H]2NC(=O)c2ccc(OC)cc2)cc1", "outcome": "inactive"}, {"molecule": "CCNCc1ccc(-c2ccc(Cl)cc2)o1", "Potency": "inconclusive: 50.1 µM [inhibitor, partial curve, poor fit]"}, {"molecule": "Cc1ccc(C(=O)N2CCCn3ccnc3C2C(C)C)c(=O)[nH]1", "note": "(configuration not stated)", "activity change, negative = cytotoxicity": "inactive: -14.3%"}, {"molecule": "O=C(CNC(=O)c1ccc(-c2cnc3ccccc3c2)cc1)NCc1ccccc1Cl", "activity change, negative = cytotoxicity": "inactive: -30.9%"}, {"molecule": "COCC1CN(C2CCC2)CC12CCN(C(=O)COc1ccc(F)cc1)CC2", "note": "(configuration not stated)", "Potency": "inconclusive: 70.8 µM [inhibitor, single point]"}, {"molecule": "COC(=O)c1cn([C@H]2CO[C@H]3[C@@H]2OC[C@@H]3NC(=O)C2CC2)nn1", "activity change, negative = cytotoxicity": "inactive: -16.8% [at 174 µM]"}, {"molecule": "COc1cncc(N2C[C@@H]3[C@H](C2)N(CCOc2ccccc2)C(=O)C(C)(C)[S+]3(=O)[O-])c1", "Potency": "inconclusive: 50.1 µM [inhibitor, partial curve, poor fit]"}, {"molecule": "CN(C)CCN(C)C(=O)c1cc(-c2ccccc2F)cc2c1OCCN2Cc1cccnc1", "Potency": "inconclusive: 50.1 µM [inhibitor, partial curve, poor fit]"}, {"molecule": "O=C1CCN(C[C@@H](O)COCc2ccccc2)c2ccc(F)cc2CN1C1CCCC1", "Potency": "inconclusive: 44.7 µM [inhibitor, partial curve, poor fit]"}, {"molecule": "O=C1NC2(CCN(CC3CC3)CC2)COc2ccccc21", "Potency": "inconclusive: 100 µM [inhibitor, single point]"}, {"molecule": "CC(C)=CCN1CCCC2(Cc3ccccc3CNC2=O)C1", "note": "(configuration not stated)", "activity change, negative = cytotoxicity": "inactive: -10.5% [at 138 µM]"}, {"molecule": "CCCCn1c(=O)c(C(=O)N2CCN(Cc3ccccc3)CC2)nc2cccnc21", "Potency": "inconclusive: 50.1 µM [inhibitor, partial curve, poor fit]"}, {"molecule": "COc1cccc(Nc2cc3c(cn2)CN(Cc2cccnc2)CCN3)c1", "Potency": "inconclusive: 63.1 µM [inhibitor, partial curve, poor fit]"}, {"molecule": "CCOc1ccc2c(n1)CCN(C(=O)c1ccc(C(C)C)cc1)C2", "Potency": "inconclusive: 44.7 µM [inhibitor, partial curve, poor fit]"}, {"molecule": "Cc1ccc(C(=O)N2CCC(c3n[nH]c(=O)n3Cc3ccc(F)cc3)CC2)cc1C", "activity change, negative = cytotoxicity": "inactive: -25.5%"}, {"molecule": "COCc1nc(-c2ccc(OC3CN(S(=O)(=O)c4ccccc4C)C3)cc2)no1", "Potency": "inconclusive: 7.94 µM [inhibitor, full curve, poor fit]"}, {"molecule": "COc1ccc(-c2cc(C[C@@H]3C[C@H](NCc4ccncc4)C3(C)C)no2)cc1", "Potency": "inconclusive: 44.7 µM [inhibitor, partial curve, poor fit]"}, {"molecule": "CC[C@@]1(C(=O)O)C[C@H](C(=O)NC(CO)CO)[C@H](c2ccc(F)cc2)N1C", "Potency": "inconclusive: 89.1 µM [inhibitor, single point]"}, {"molecule": "COc1ccc(C2(C(=O)N3CCCC(c4nc(-c5cccnc5)no4)CCNC(=O)CC3)CC2)cc1", "note": "(configuration not stated)", "activity change, negative = cytotoxicity": "inactive: 0.209%"}, {"molecule": "COc1ccc(-c2noc(-c3cccn3CC(=O)Nc3cccc(Cl)c3C)n2)cc1F", "activity change, negative = cytotoxicity": "inactive: 1.27%"}, {"molecule": "Cc1cccc(C)c1Oc1ncccc1CNC(=O)c1[nH]ncc1Cl", "Potency": "inconclusive: 79.4 µM [inhibitor, partial curve, poor fit]"}, {"molecule": "Cc1nnc(C2CCCCCN2S(=O)(=O)c2cccnc2)o1", "note": "(configuration not stated)", "activity change, negative = cytotoxicity": "inactive: -12.9%"}, {"molecule": "O=S(=O)(c1cccnc1)N1CCCCC1CCc1cccs1", "note": "(configuration not stated)", "Potency": "inconclusive: 44.7 µM [inhibitor, partial curve, poor fit]"}, {"molecule": "O=C(C1CC1)N1CCC(c2nnc3n2C(C(=O)N2CCN(c4ncccn4)CC2)CC3)CC1", "note": "(configuration not stated)", "outcome": "inactive"}, {"molecule": "OC1(c2csc(CN3CCc4ccccc4C3)n2)CCN(C2CCC2)CC1", "Potency": "active: 100 µM"}, {"molecule": "Cc1ccc(C)c(CN2CCc3nc(N4CCN(C)CC4)[nH]c(=O)c3CC2)c1", "outcome": "inactive"}, {"molecule": "CCc1cnc(N2CCC(COc3ccc4c(cnn4CCC(=O)O)c3)CC2)nc1", "Potency": "inconclusive: 22.4 µM [inhibitor, partial curve, poor fit]"}, {"molecule": "CC(C)CNC(=O)c1ccc2c(c1)C1(CCN(C)C1)CN2CC1CCOCC1", "note": "(configuration not stated)", "Potency": "inconclusive: 89.1 µM [inhibitor, partial curve]"}, {"molecule": "CN(Cc1ccc(CCN)cc1)Cc1cccc(-n2cccn2)c1", "Potency": "inconclusive: 79.4 µM [inhibitor, partial curve, poor fit]"}, {"molecule": "Cc1cc(C(=O)N[C@@H]2C[C@H](COc3ccc(S(C)(=O)=O)cc3)[C@@H](O)[C@H]2O)nn1C", "outcome": "inactive [at 138 µM]"}, {"molecule": "Cc1ccsc1C(=O)N1C[C@@H](Oc2cccnc2)C[C@@H]1C(=O)N1CCOCC1", "activity change, negative = cytotoxicity": "inactive: -2.45%"}, {"molecule": "Cn1cccc1C(=O)N1CC(Oc2ccc(-c3nc(-c4ccccc4)no3)cc2)C1", "activity change, negative = cytotoxicity": "inactive: -26.6%"}, {"molecule": "CC1(C)C(=O)N(CCOc2ccccc2)[C@H]2CN(Cc3ccc4c(c3)CCO4)C[C@H]2[S+]1(=O)[O-]", "Potency": "inconclusive: 50.1 µM [inhibitor, partial curve, poor fit]"}, {"molecule": "C[S+](=O)([O-])c1ccc(CC(=O)N2CC(COc3ccccc3)C3(C2)CN(c2ccccc2)C3)cc1", "note": "(configuration not stated)", "activity change, negative = cytotoxicity": "inactive: -31.9%"}, {"molecule": "Clc1ccc(C2CN(c3cc(C4CC4)ncn3)CCO2)cc1", "note": "(configuration not stated)", "Potency": "inconclusive: 15.8 µM [inhibitor, full curve]"}, {"molecule": "COCCN1CCCCCC(O)c2cc(C(=O)NCCc3nc4ccccc4n3C)ccc21", "note": "(configuration not stated)", "Potency": "inconclusive: 39.8 µM [inhibitor, partial curve]"}, {"molecule": "O=C(Cn1ccc2ccccc21)Nc1ccc2c(c1)C(=O)N1CCC[C@H]1C(=O)N2", "activity change, negative = cytotoxicity": "inactive: -23.7%"}, {"molecule": "Cc1nc(-c2ccccc2)n(CC(=O)Nc2ccccc2)c(=O)c1CCO", "Potency": "inconclusive: 50.1 µM [inhibitor, partial curve, poor fit]"}, {"molecule": "NC(=O)[C@H]1C[C@@H](O)[C@H](O)[C@H]2[C@@H]1SC(=Nc1ccccc1)N2CC1CCCCC1", "activity change, negative = cytotoxicity": "inactive: -4.44% [at 174 µM]"}]}]}
